From PMC6919601, “Identification of Plasmodium dipeptidyl aminopeptidase allosteric inhibitors by high throughput screening” (PLoS ONE, 2019) come the findings set out here.

Molecules are shown by their SMILES. Where “and” joins values, the source holds several entries; their conditions need not be identical. Identical values can stand only once. About 230 (0.21%) of roughly 110,000 compounds showed an effect of 50% or more. This is one part of the list.
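Also: 30 min substrate incubation versus DMSO and 10 µM JCP410 controls.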

DPAP1, sequence (Q8IIJ9 whole entry, looked up): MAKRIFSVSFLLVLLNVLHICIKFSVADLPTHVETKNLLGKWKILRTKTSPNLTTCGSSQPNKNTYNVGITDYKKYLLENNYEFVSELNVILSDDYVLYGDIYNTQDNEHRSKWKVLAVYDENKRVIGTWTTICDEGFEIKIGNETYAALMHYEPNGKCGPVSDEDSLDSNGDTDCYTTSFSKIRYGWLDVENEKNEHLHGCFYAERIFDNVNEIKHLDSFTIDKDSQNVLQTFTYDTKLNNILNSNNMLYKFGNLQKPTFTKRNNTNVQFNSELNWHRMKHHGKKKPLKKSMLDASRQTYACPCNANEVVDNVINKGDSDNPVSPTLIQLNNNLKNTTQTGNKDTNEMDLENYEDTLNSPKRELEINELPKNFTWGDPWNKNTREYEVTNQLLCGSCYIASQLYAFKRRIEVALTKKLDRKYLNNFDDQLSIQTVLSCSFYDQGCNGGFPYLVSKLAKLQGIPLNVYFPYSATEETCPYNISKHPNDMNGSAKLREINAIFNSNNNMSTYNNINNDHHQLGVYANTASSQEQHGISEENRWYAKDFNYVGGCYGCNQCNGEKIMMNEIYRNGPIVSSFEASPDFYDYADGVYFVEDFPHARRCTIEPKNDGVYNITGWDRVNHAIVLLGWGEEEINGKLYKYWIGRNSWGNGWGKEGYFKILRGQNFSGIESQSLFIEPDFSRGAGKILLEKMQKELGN

This assay has as its target DPAP1 (Plasmodium falciparum, UniProt Q8IIJ9). As to the kind of experiment: primary screen, percent inhibition; read by cleavage of a fluorogenic dipeptide substrate; higher = more effect of the substance. Also noted: species or system P. falciparum D10 trophozoite lysates; single well.
Regarding `CCCCNCC(=O)n1c(=O)sc2ccccc21`, the “% Inhibition @ 10 uM” value is given as 1.57%.
The result for `Cc1ccnc(NC(=O)CN2C(=O)c3ccccc3C2=O)c1` reads -3.41%; that for `CCCCc1ccc(-c2csc(/C(C#N)=C\c3sccc3C)n2)cc1`, 1.13%; that for `CCCCSc1nc2c(c(=O)[nH]c(=O)n2C)n1CCC`, 0.851%.
The result for `CC(=O)NC12CC3CC(C)(C1)CC(NC(C)=O)(C3)C2` reads 2.46%.
The result for `CCCNC(=O)CN(c1ccc(Cl)cc1)S(=O)(=O)c1ccc(C)cc1` reads 0.913%; that for `Cc1c(C)n(Cc2ccccc2)c2ccc(C(=O)N3CCCC3)cc12`, 1.78%; that for `FC(F)(F)c1nc(NCc2ccccc2)nc2c1CCCCC2`, 5.36%.
Regarding `O=C(C1c2ccccc2Oc2ccccc21)N1N=C(C(F)F)CC1(O)C(F)F` (centres unmarked), the “% Inhibition @ 10 uM” value worked out at 0.658%.
As for `CCCCN(CCCC)CCn1cnc2c3cc(F)ccc3nc-2c1O`, the “% Inhibition @ 10 uM” value is reported as -3.52%.
On to `CN1C(=O)NC(=O)/C(=C\c2cn(Cc3ccccc3Cl)c3ccccc23)C1=O`, for which the “% Inhibition @ 10 uM” value is reported as -4.74%.
Turning to `CCc1cccc(C)c1NC(=O)c1ccn(C)n1`, the “% Inhibition @ 10 uM” value is reported as -5.28%.
Turning to `CCOc1ccc(C(=O)C2=C(O)C(=O)N(Cc3ccco3)C2c2ccc(F)cc2)cc1` (centres unmarked), the “% Inhibition @ 10 uM” value is 2.36%.
The result for `Cc1ccc(C(=O)N2CCN(C)CC2)cc1` reads 0.827%.
For the compound `COc1cc(C(=O)NCCNC(=O)c2ccncc2)cc(OC)c1OC`, the “% Inhibition @ 10 uM” value is listed as -1.4%.
In the case of `CCCCC(=O)Nc1nc2c(C)cccc2s1`, the “% Inhibition @ 10 uM” value is -3.16%.
The result for `O=C(O)C1CCCCC1C(=O)Nc1ccc(N2CCOCC2)c2nonc12` (centres unmarked) reads 2.38%.
With `Cc1cccc(C(=O)O/N=C(\N)Cc2cccc3ccccc23)c1`, the “% Inhibition @ 10 uM” value is -1.4%.
The result for `CC(C)(C)C1CCC(OC(=O)CCC(=O)Nc2cccc3ccccc23)CC1` (centres unmarked) reads 9.4%.
For `Cc1ccc(C2(O)CSC3=C(C#N)C(c4ccc(C(F)(F)F)cc4)CC(=O)N32)cc1` (centres unmarked), the “% Inhibition @ 10 uM” value came to 3.24%.
The result for `COc1cccc(NC(=O)CCC2CCCC2)c1` reads 2.79%; that for `Cc1ccc(CS(=O)Cc2ccc(C(=O)NCc3cccnc3)o2)cc1` (centres unmarked), 2.83%.
The result for `O=P(O)(Cc1ccccc1O)c1ccccc1` reads 2.6%.
The result for `NC(=O)C1CCN(S(=O)(=O)c2ccc([N+](=O)[O-])cc2)CC1` reads 0.962%; that for `CC1=C(C(=O)OC2CCCC2C)C(c2ccc(Cl)cc2)NC(=O)N1` (centres unmarked), 4.34%; that for `O=C(Nc1ccc(-c2nc3ccccc3o2)cc1)c1cccs1`, 1.57%.
`COc1cc(/C=C2/C(=N)N3OC(C)=CC3=NC2=O)cc(Cl)c1OCc1cccc(C)c1`: the “% Inhibition @ 10 uM” value is recorded as 3.63%.
Consider `Nc1nc(-c2ccc(Br)cc2)cs1`, for which the “% Inhibition @ 10 uM” value is -1.8% and 0.878%.
Turning to `Cc1cccc(NC(=O)Nc2cc(C)ccc2C)c1`, the “% Inhibition @ 10 uM” value is -3.28%.
The result for `CC1=C(C(=O)N2CCc3ccccc3C2)C2(CCCCC2)OC1=O` reads -3.7%.
The result for `Cc1nn(Cc2noc(C(=O)NCCC34CC5CC(CC(C5)C3)C4)n2)c(C)c1Br` reads -5.53%; that for `Cn1nnnc1SCC(=O)Nc1nc2ccccc2s1`, -2.84%.
The result for `COc1ccc(-c2cc(C(=O)N3CCN(c4ncccn4)CC3)c3ccccc3n2)c(OC)c1` reads -3.72%; that for `CCCCC(=O)NC(c1ccccc1OC)c1ccc2cccnc2c1O` (centres unmarked), -5.28%; that for `Cn1nnc(NC(=O)CSc2nnnn2-c2ccc(C(=O)O)cc2)n1`, 8.3%.
For `O=C1CC(NCc2ccc3c(c2)OCO3)C(=O)N1c1ccc(Cl)cc1` (centres unmarked), the “% Inhibition @ 10 uM” value was found to be 8.71%.
The result for `CCOC(=O)C1=C(CN2CCN(c3ccc(Cl)nn3)CC2)NC(=O)NC1c1ccc(Cl)cc1` (centres unmarked) reads 0.708%; that for `c1ccc(N2CCN(C3CN4CCC3CC4)CC2)cc1` (centres unmarked), -3.27%; that for `CCC/C(=N\c1ccc(OC)cc1)C1=C(O)CC(C)(C)CC1=O`, 0.169%.
The result for `CCN1CCC(N2CCN(c3ccc(C(C)=O)cc3)CC2)CC1` reads 3.48%; that for `O=[N+]([O-])c1ccccc1CN1CCC2(C=Cc3ccccc32)CC1`, 7.87%.
Consider `Cc1ccccc1NC(=O)c1cccc(NC(=O)C(F)(F)F)c1`, for which the “% Inhibition @ 10 uM” value was -2.32%.
The result for `O=c1c2c(nc3n1CCCCC3)-c1ccccc1CC21CCCCC1` reads 4.57%.
The result for `COCCNC(=O)c1ccc2c(c1)sc1nc(-c3cccc(OC)c3)cn12` reads 6.88%; that for `CCOC(=O)CCn1c(CC(=O)OCC)nc2ccccc21`, 4.61%; that for `O=C(Nc1c2c(nc3ccccc13)N(c1cccc(Cl)c1)CC2)C12CC3CC(CC(C3)C1)C2`, 4.54%.
The result for `CCCCn1c(CN2CCN(C(=O)OCC)CC2)nc2c1c(=O)[nH]c(=O)n2C` reads -1.21%; that for `COc1ccc(/C=C/C(=O)Nc2ccc(OC)cc2OC)cc1`, 3.61%; that for `Cc1noc(C(=O)NCc2ccco2)c1Cl`, -1.92%.
Regarding `CCCC[C@H](NC(=O)[C@H](CS(=O)(=O)Cc1ccccc1C)NC(=O)N1CCOCC1)C(=O)c1nc2ccccc2o1`, the “% Inhibition @ 10 uM” value was 1.35%.
The result for `COc1ccc(N2C(=O)CC(NCCc3ccc(Cl)cc3Cl)C2=O)cc1` (centres unmarked) reads 2.82%.
The result for `O=S(=O)(NCc1ccccc1)c1ccc(OCCn2cnnn2)cc1` reads -2.19%; that for `CC(C)N(C(=O)c1ccc2c(c1)OCCO2)C(C)C`, -2.94%.
The result for `CCN(CC)CCN(CC)CC1=CC[C@H]2C[C@@H]1C2(C)C` reads 10.4%; that for `COc1ccc(/C=c2\sc3n(c2=O)CCN=3)c(OC)c1`, -6.95%.
In the case of `CCC(Oc1ccccc1)C(=O)Nc1nnc(S(=O)(=O)NCC2CCCO2)s1` (centres unmarked), the “% Inhibition @ 10 uM” value is reported as 3.3%.
In the case of `O=C(CN1C2=NCCCN2c2ccccc21)c1ccc(O)cc1`, the “% Inhibition @ 10 uM” value came to 0.431%.
Turning to `O=C1NC(=S)NC(=O)C1C/C=C/c1ccccc1`, the “% Inhibition @ 10 uM” value is given as -8.15%.
The result for `NC(=O)c1cc(-c2ccc(Cl)cc2)nc2ccc(Br)cc12` reads 0.565%; that for `CC(=O)c1ccc(N2C(=O)C3CC(C)=C(C)CC3C2=O)cc1` (centres unmarked), -2.67%; that for `COc1cc(/C=C2\SC(N3CCOCC3)=NC2=O)cc(OC)c1OC`, 1.84%.
As to `CC(C(=O)NCC1CCCO1)n1ncn2cccc2c1=O` (centres unmarked), the “% Inhibition @ 10 uM” value is on record as -8.23%.
`CN(Cc1ccccc1)C(=O)Nc1ccc(Cl)cc1`: the “% Inhibition @ 10 uM” value is on record as -2.3%.
The result for `CC(NC(=O)CN1CCN(Cc2ccc(Cl)cc2)C1=O)c1ccc2c(c1)OCCO2` (centres unmarked) reads 5.47%.
With `CSc1ccc(C2C3=C(O)CC(C)(C)CC3=NC(C)=C2C(=O)Nc2ccccn2)cc1` (centres unmarked), the “% Inhibition @ 10 uM” value was -4.48%.
